The results in this text go back to publication PMC7819943, “Rice protein-binding microarrays: a tool to detect cis-acting elements near promoter regions in rice”.

The other results are listed elsewhere or left out.

In this test the target is T1, OsWOX13 (Oryza sativa, UniProt Q5QMM3 1-267).
T1 sequence: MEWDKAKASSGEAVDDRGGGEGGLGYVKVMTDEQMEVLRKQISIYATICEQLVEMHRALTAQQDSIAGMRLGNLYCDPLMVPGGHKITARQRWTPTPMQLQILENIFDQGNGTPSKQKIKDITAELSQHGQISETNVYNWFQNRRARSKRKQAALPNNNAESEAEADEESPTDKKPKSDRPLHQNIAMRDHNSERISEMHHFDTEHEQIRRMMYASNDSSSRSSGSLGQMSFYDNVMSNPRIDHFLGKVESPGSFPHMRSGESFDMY
In words: protein-binding microarray (RPBM); PBS, 2% BSA, 51.3 ng/ul salmon testes DNA, 50 uM zinc acetate, 200 nM TF, 25 C, 1 h; high values mean tight binding. The note with it: protein: recombinant; tags: N-terminal polyhistidine and DsRed monomer fusion (pET32a); label: CyDye5-dUTP incorporated in the synthesized complementary strand; 3' TTTTT single-stranded linker to array surface; dsDNA, one strand shown. The procedure, abridged: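 The binding signal is fluorescence intensity per feature, in arbitrary units, read on an Axon 4000B scanner. Polyhistidine- and DsRed-tagged transcription factors (N-terminal fusions) from E. coli BL21-CodonPlus were purified on Ni–NTA and applied at 200 nM for 1 h at 25 °C to a double-stranded, BSA-blocked custom Agilent array in buffer with 50 µM zinc acetate.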
Consider “AATTTAATTAATCATGGCATTGGGCAAAAGCTTATAAAAGCGGAGTCACCTAGTGCAG”, for which the binding signal was 21400 fluorescence intensity (a.u.).

Turning to “ATATATATATATATATATATATACACTATATACTATACCGCGGAGTCACCTAGTGCAG”, the binding signal is 19200 fluorescence intensity (a.u.).

With “CAAAGTGGATTGAACTGTCGCGGTTTGACGCGAATCTCGACGGAGTCACCTAGTGCAG”, the binding signal was 4510 fluorescence intensity (a.u.).

Regarding “CAAATAGGAGATGAATGATTTAAGACTACCACCCCGTTCACGGAGTCACCTAGTGCAG”, the binding signal was 4540 fluorescence intensity (a.u.).

Regarding “AGTCAGATGCTCATAATTGAAAGAAATGCTAGGGCCTGAACGGAGTCACCTAGTGCAG”, the binding signal was 15200 fluorescence intensity (a.u.).

With “ACAACAGGCTGTAATTGAGTTATGGACTAGAGATAAGTTTCGGAGTCACCTAGTGCAG”, the binding signal is 8270 fluorescence intensity (a.u.).

As for “AGAACTAATTTAACACGTAACAAAAGTTTAATGACCGAATCGGAGTCACCTAGTGCAG”, the binding signal was 14500 fluorescence intensity (a.u.).

Take “ATCATGATAATTGATGAGTTAAATGAATCAGCTGGATATTCGGAGTCACCTAGTGCAG”: the binding signal was 42100 fluorescence intensity (a.u.).

Consider “TGAATTCAATCACGCTATCAGTACAACAACAACATCTTAACGGAGTCACCTAGTGCAG”, for which the binding signal was 11900 fluorescence intensity (a.u.).

In the case of “ACTAAATTATACCATTTACATGACTATGCATTCAGAAAATCGGAGTCACCTAGTGCAG”, the binding signal was 7120 fluorescence intensity (a.u.).

On to “AGTTTGGTTATATTGTAATTGAATGTAATCTGCTTTACAACGGAGTCACCTAGTGCAG”, for which the binding signal was 5450 fluorescence intensity (a.u.).

Take “AATACGTGATAGAAATCGTCTGATACACGACAGGTATCGCCGGAGTCACCTAGTGCAG”: the binding signal is 5480 fluorescence intensity (a.u.).

With “CAGTTAAATTACACCTGGTAGTACCATTTTGAGATGTAAGCGGAGTCACCTAGTGCAG”, the binding signal is 6870 fluorescence intensity (a.u.).

On to “TGGGTCCACTAATTTAAATGAAAATCAACGGTGGGATTAGCGGAGTCACCTAGTGCAG”, for which the binding signal is 6380 fluorescence intensity (a.u.).

For “CTTCAAAATCATGTATAAATTGTTTTAAATCACCATGTAGCGGAGTCACCTAGTGCAG”, the binding signal was 7740 fluorescence intensity (a.u.).

As to “AGCCAATTCACACAATAATTGCTTACTATACTATTAATATCGGAGTCACCTAGTGCAG”, the binding signal was 4330 fluorescence intensity (a.u.).

With “TACATGCTAATTAAACACTTCTATTACTACGTACAGAGCACGGAGTCACCTAGTGCAG”, the binding signal was 8340 fluorescence intensity (a.u.).

Take “TTGACAGATGTAATTATAGTACAATCATAGTGTAATTACACGGAGTCACCTAGTGCAG”: the binding signal was 30700 fluorescence intensity (a.u.).

Regarding “CAAGGATATTTAGATAATTGACATAGACCGAGATGATACACGGAGTCACCTAGTGCAG”, the binding signal is 31400 fluorescence intensity (a.u.).

For the sequence “ATAATTGACATGTGGGCCCACGATTTCTATTATTTCCAAACGGAGTCACCTAGTGCAG”, the binding signal is 44100 fluorescence intensity (a.u.).

On to “CCTAATTAAGTGGATTTTAGTTTTATATATTATTTAACTTCGGAGTCACCTAGTGCAG”, for which the binding signal was 25700 fluorescence intensity (a.u.).

Consider “ATATATATATATATATATATATATATATTATCGCTAATAACGGAGTCACCTAGTGCAG”, for which the binding signal is 31200 fluorescence intensity (a.u.).

As to “TACAAAATCATCCATCAACCGCAAAATCAGATATCGACCGCGGAGTCACCTAGTGCAG”, the binding signal was 3560 fluorescence intensity (a.u.).

For “GAGTATATCATTTCTCAATTTATTATTTATAGGAGTGTAGCGGAGTCACCTAGTGCAG”, the binding signal was 4750 fluorescence intensity (a.u.).

Regarding “CCCGATTAATATGATAATTTCTAGGCCGTGAGAGTGAACACGGAGTCACCTAGTGCAG”, the binding signal was 18400 fluorescence intensity (a.u.).

With “CTCCACGTGACTGAAATGCCCTCCGTACTTAAACCACCAACGGAGTCACCTAGTGCAG”, the binding signal is 3440 fluorescence intensity (a.u.).

As to “ATGTTTGACATAGATAAATTAAAATCGGGAAGAGTGCTACCGGAGTCACCTAGTGCAG”, the binding signal was 14300 fluorescence intensity (a.u.).

“GGGGCGGTGGCGGCGGTGGATTGGGCGGTAACGCGATGGCCGGAGTCACCTAGTGCAG”: the binding signal was 4080 fluorescence intensity (a.u.).

With “GCCAATTGAGAATTTGAGATCGTTCGATCATCACCTCGTTCGGAGTCACCTAGTGCAG”, the binding signal is 3760 fluorescence intensity (a.u.).

With “TTTTCTGATAAAATTTACAATCAAATGACTTTAAAGAATCCGGAGTCACCTAGTGCAG”, the binding signal is 3830 fluorescence intensity (a.u.).

Consider “AACACTAAATTTCAATTCAGTTTCAGCATATACGAATAGGCGGAGTCACCTAGTGCAG”, for which the binding signal is 8250 fluorescence intensity (a.u.).

Regarding “CTAATTTGCCAGTCAAATATAGTGGAGGACGAGAAATGGTCGGAGTCACCTAGTGCAG”, the binding signal is 17400 fluorescence intensity (a.u.).

On to “CTATTACTAATCTATATAATGGACATAGGGCTGGAAAGCACGGAGTCACCTAGTGCAG”, for which the binding signal is 4370 fluorescence intensity (a.u.).

As to “GCTATGATTAACCGTAAGCTATCTACAAGAGTATAGATCCCGGAGTCACCTAGTGCAG”, the binding signal is 13800 fluorescence intensity (a.u.).

With “GATTGATTCCACTCAAGATTGTCGTCAATCGGTCTCTGCACGGAGTCACCTAGTGCAG”, the binding signal was 11000 fluorescence intensity (a.u.).

As to “ATTTTGATAATGTTGCTAAATTTTAGCAAGATTTCATATGCGGAGTCACCTAGTGCAG”, the binding signal is 3690 fluorescence intensity (a.u.).

In the case of “AGGATTGGGATTAAATGTAAGAGGAAGAATGAATGGTTAGCGGAGTCACCTAGTGCAG”, the binding signal is 6070 fluorescence intensity (a.u.).

Consider “GGCTTAATGGCCTTAACTGAGGAATGGACCACTTCCAAGCCGGAGTCACCTAGTGCAG”, for which the binding signal was 17000 fluorescence intensity (a.u.).

“TGATGTAATTGCCTTTGCTTGTCCCTCAGAAGTATTCGTTCGGAGTCACCTAGTGCAG”: the binding signal was 16700 fluorescence intensity (a.u.).

“GTTTGAACAGTCAATTGATTGGGCTCACCAATTAGAGATGCGGAGTCACCTAGTGCAG”: the binding signal is 50000 fluorescence intensity (a.u.).

Regarding “TGTGTTGATTAAATCAAAATTCTCAATAAAATACACTAGTCGGAGTCACCTAGTGCAG”, the binding signal is 24700 fluorescence intensity (a.u.).

On to “AGATTGACGGGGATGTCATTGTGCCTGAGCAGATATAGAACGGAGTCACCTAGTGCAG”, for which the binding signal was 8360 fluorescence intensity (a.u.).
